Measurements: paper PMC12040169 (PLOS Biology, 2025)
The list shows a part of the results.

What follows are compounds tested on T1, C. trachomatis L2/434/Bu expressing GFP (CTL2-GFP). Settings: total inclusion area; 28.5 h, 10 µM; inhibitor.
T1 construct: L2/434/Bu GFP intracellular growth in HeLa cells
Set-up: species or system HeLa; C. trachomatis total inclusion area by high-content imaging, normalised to DMSO
How it was run: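 High-content imaging followed the bulk GFP/resorufin measurement: fixed, Hoechst-stained cells were scored for GFP inclusions and host nuclei per well. Total inclusion area and count served as growth proxies, nuclei number as the viability proxy. MIC calculation matched the bulk assay.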

Structure (SMILES)	% of control remaining
CC(=O)Nc1cc2nc3ccccc3nc2cc1NC(C)=O [CBK261018]	92.1486
Cc1nnc(SCc2nc3ccccc3c(=O)[nH]2)[nH]1 [CBK267830]	84.8886
COC(=O)CN1C(c2ccccc2O)Nc2ccc(Br)cc2C1c1ccccc1 (centres unmarked) [CBK263133]	98.0185
O=C(C1CCC1)N1C2CCC1Cn1c(nc3ccccc3c1=O)C2 (centres unmarked) [CBK284453]	99.6904
COc1ccc(CC(=O)N2CCCC(c3nccnc3-c3cccc(C)c3)C2)cc1 (centres unmarked) [CBK286137]	81.9465
COc1ccc(NS(=O)(=O)c2ccc(C)cc2)cn1 [CBK010484]	49.51
Clc1ccc(CN2CCCN(c3nccc(OCC4COc5ccccc5O4)n3)CC2)cc1 (centres unmarked) [CBK084038]	58.1016
COc1cc(C(=O)NN)cc(OC)n1 [CBK012275]	71.4449
CCOC(=O)CC1C(=O)NCCN1C/C=C/c1ccccc1 (centres unmarked) [CBK269922]	104.981
O=C(NCC1Cc2ccccc2O1)c1ccc(Br)cc1Cl (centres unmarked) [CBK298323]	85.364
CCn1cc(S(=O)(=O)NCc2ccc3[nH]c4c(c3c2)CCCC4)cn1 [CBK307225]	59.2631
NC(=O)c1ccc(NC(=O)N2CCN(CCN3CCOCC3)CC2)cc1 [CBK155831]	87.909
O=C1CCCN1CCCNC(=O)N1CCCC(CO)C1 (centres unmarked) [CBK156063]	102.449
O=C(C1=Cc2ccccc2OC1)N1CCC(c2ccncc2)CC1 [CBK282339]	81.7053
CC(C)C[C@@H]1N[C@H](C(=O)NCC2CCOCC2)Cc2c[nH]c3cccc1c23 [CBK289427]	89.0183
O=C(O)c1cccc(-c2cnc(NCC3CC3)c(C(=O)NCC(F)(F)F)c2)c1 [CBK106420]	79.6649
FC(F)(F)c1nc2ccccc2nc1SCCOc1ccccc1 [CBK103726]	108.754
Cc1cc(C)c(C)c(S(=O)(=O)N(CCO)CCO)c1C [CBK269082]	50.9308
NC(=O)c1cccnc1-c1nc2ccccc2s1 [CBK287930]	103.057
COc1cccc(C2(NC(=O)CCn3nccc3C)CCCC2)c1 [CBK283601]	81.4649
Cn1nccc1CCC(=O)N1CC[C@H]2NC(=O)c3ccccc3OCCCCC[C@H]2C1 [CBK292028]	109.868
CS(=O)(=O)N(Cc1ccco1)Cc1cc2ccccc2nc1O [CBK269434]	87.2819
Nc1ccc2c(-c3cc(F)cc(F)c3)ccnc2n1 [CBK067638]	93.7443
Clc1ccc(OC/C=C2\Oc3ccc(Cl)cc3C2N2CCOCC2)c(Cl)c1 (centres unmarked) [CBK262753]	123.589
Cc1c(CN(C)CC(=O)Nc2cccc(C(F)(F)F)c2)cnn1C [CBK304341]	27.2596
O=C(Nc1ncn(CC(=O)N2CCCCCC2)n1)c1cccs1 [CBK304953]	48.7689
NC(=O)C1CCN(C(=O)c2cc3c(=O)n4ccccc4nc3s2)CC1 [CBK296938]	73.7603

Structure (SMILES)	% of control remaining
O=C1NC=CCC12CCCN(S(=O)(=O)c1ccc(F)cc1)C2 (centres unmarked) [CBK284797]	92.4134
O=C(Nc1cccnc1)C1CCN(S(=O)(=O)c2ccc(Oc3ccccc3)cc2)CC1 [CBK269621]	94.9437
O=C(/C=C/c1cccc([N+](=O)[O-])c1)NC(=S)Nc1ccc(-c2nc3ccccc3[nH]2)cc1 [CBK264376]	80.952
Cc1ccc(NC(=O)CCc2cccnc2)c(C)n1 [CBK200386]	85.5082
CCc1nc2ccc(C(=O)N(C)CCN(C)C)cn2c1N(CC)C(=O)NCCc1ccccc1 [CBK147036]	107.268
CCN1CCN(Cc2c[nH]c3ccccc23)CC1 [CBK261540]	90.6924
CC(C)N1C[C@@H](C(=O)NC(C)(C)C)[C@@]2(Cc3ccccc3C(=O)N2)C1 [CBK285295]	73.229
CC(C)(C)C(=O)Nc1ccc(-c2ccc(NC(=O)C(C)(C)C)c(C(=O)O)c2)cc1C(=O)O [CBK261392]	96.2294
NC1CCN(C(=O)Cn2ccc3ccnc(-c4cccs4)c32)CC1 [CBK284750]	99.8829
CCCCOC(=O)c1c(N)n(CCOC)c2nc3ccccc3nc12 [CBK264961]	107.863
CN(C)c1ccc(CN(CCO)CCO)cc1 [CBK261921]	69.3243
CCCCc1ccc(-c2cnc(N)c3ncccc23)cc1 [CBK067588]	91.9903
COCCNc1nc2c(c(N3CCCC(CO)C3)n1)CCNCC2 (centres unmarked) [CBK307242]	62.9155
Cn1nc2c(c1O)CCCC2 [CBK089897]	94.9412
CCc1cc2c(=O)c(-c3cnn(-c4ccccc4)c3)c(C(F)(F)F)oc2c(CN2CCCCC2)c1O [CBK264458]	104.763
CCOc1cc(OCC)nc(Oc2ccc(C(=O)OC)cc2)n1 [CBK107733]	103.677
COCCNC(=O)c1ccc(-c2ccc3c(c2)OCO3)nc1N(C)C [CBK106050]	88.9681
Cc1cc(=O)n2c(C(=O)Nc3ccc(C(=O)O)cc3)c(C(=O)Nc3cccc(C)c3C)sc2n1 [CBK297547]	102.003
COc1cccc(N2CCN(C(C(=O)O)c3cn(C)c4cc(C(=O)O)ccc34)CC2)c1 (centres unmarked) [CBK286701]	110.917
COc1cc(Br)c(-c2nnn[nH]2)cc1OC [CBK270093]	86.5719
O=S(=O)(NCc1ccc2c(c1)OCO2)c1ccc2c(c1)oc1ccccc12 [CBK268308]	101.359
Brc1cn2ccnc2c(N2CCCC2)n1 [CBK085449]	98.7513
C[S+]([O-])CCNC(=O)c1cc2c(Cl)cccc2[nH]1 (centres unmarked) [CBK283304]	108.892
COc1ncc(-c2nccnc2NCC(C)O)c(OC)n1 (centres unmarked) [CBK036970]	125.254
Cn1c2ccccc2c2nnc(NCCCCO)nc21 [CBK023366]	97.7122
O=C(Nc1ccccc1O)c1cc(S(=O)(=O)N2CCCCCC2)ccc1Cl [CBK264554]	101.821
CC(=O)c1ccc(-c2nccnc2N[C@@H](CO)C(C)C)s1 [CBK037404]	99.1705

Structure (SMILES)	% of control remaining
COCc1c(Br)c(C)nc(OCC(=O)O)c1C#N [CBK266532]	77.3976
C[C@]12CN(CC3CC=CCC3)C[C@H]1C(=O)Nc1ccccc1C(=O)N2 (some centres unmarked) [CBK284738]	50.9619
CCn1cc(Cl)c(C(=O)NC2CCN(c3cnccn3)CC2)n1 [CBK306922]	78.919
Cc1ccc(Cl)cc1NC(=O)c1cc([N+](=O)[O-])ccc1NCCN1C(=O)c2ccccc2C1=O [CBK268501]	105.162
CC(Oc1cccc(C#N)c1)C(=O)N1CCCC1C(=O)NCC(F)(F)F (centres unmarked) [CBK305435]	55.4051
COc1ccccc1NC(=O)CSCc1nc2ccccc2[nH]1 [CBK268385]	126.294
Cn1ccnc1C1(O)C2CCCC1CN(Cc1ccc(F)c(F)c1)C2 (centres unmarked) [CBK285189]	88.4456
CCn1c(=O)sc2cc(Br)ccc21 [CBK026526]	59.0377
O=C(O)CCC(=O)N1CCN(C(=O)c2ccco2)CC1 [CBK286533]	41.6203
CN(C)C(=O)CO[C@@H]1CO[C@H]2[C@@H]1OC[C@@H]2Nc1nccc(-c2cccs2)n1 [CBK289515]	77.0984
Cc1ccc(-c2noc(CN3CCN(c4ccccc4)CC3)n2)cc1 [CBK265924]	136.356
NS(=O)(=O)c1ccc(NC(=S)NC(=O)c2cccc3c(Cl)cccc23)cc1 [CBK268814]	94.6386
Cc1cc(C)nc(N2CCC(c3cc(CCOc4cccc(C(F)(F)F)c4)[nH]n3)C2)n1 (centres unmarked) [CBK285568]	96.8363
Cc1cccc(C2(O)CCN(CC(O)c3ccc4c(c3)CCC4)CC2)c1 (centres unmarked) [CBK286330]	106.215
CC1(CNS(=O)(=O)Cc2cc(F)cc(F)c2)COC1 [CBK281413]	89.8548
CC(C)NS(=O)(=O)c1ccc(OCC(=O)Nc2ccc3c(c2)OCO3)c(Cl)c1 [CBK267919]	106.824
CC(=O)c1cccc(-c2cnc(N)c(-c3ccc(O)cc3)n2)c1 [CBK122508]	102.959
CN1C(=O)COc2ccccc2C/C=C/C[C@@H]2[C@H]1CCCN2C(=O)CCCNc1ncccn1 [CBK292168]	106.769
Cc1ccc2c(c1)C(NC(=O)C1CCN(S(C)(=O)=O)CC1)CC(C)(C)O2 (centres unmarked) [CBK307604]	57.6791
CC(C)NC(=O)[C@H]1CN2CCC1C[C@@H]2Cn1cc(C2(O)CCCC2)nn1 (some centres unmarked) [CBK289090]	109.445
Cc1cc(Cl)cc(Cl)c1OCCCc1c(C)n[nH]c1C [CBK025733C]	28.1784
O=C(NCc1ccco1)c1nn(-c2nc3ccccc3s2)c2ccccc12 [CBK048482]	123.996
Oc1cccnc1N1CCNCC1 [CBK045850]	48.0979
Clc1ccc(SCc2cccc(CSc3ccc(Cl)c(Cl)c3)n2)cc1Cl [CBK223404]	90.5178
O=C(Nc1ccccc1N1CCN(C(=O)c2ccc(Cl)cc2)CC1)c1ccc(-c2cc3ccccc3oc2=O)cc1 [CBK267280]	111.56
c1ccc(-c2ccccc2CN2CCC(Oc3nccnc3OCCN3CCOCC3)CC2)cc1 [CBK082924T]	81.8985
